Source: US8071103B2, “Pharmaceutical composition comprising a human GLP-1 mimetibody” (Centocor, Inc., priority 2006, dated 2011)
“Also recorded” adds a separate entry of the source.

Key:
[1] = test system: diet-induced obese (DIO) mice; assay: ipGTT in diet-induced obese (DIO) mice, acute pharmacodynamic study; assay type: in vivo
Method: Acute Pharmodynamic Study with GLP-1 MMB.
Materials/Methods: D-glucose was purchased from Sigma. The studies described below used diet-induced obese (DIO) C57B1/6J mice that were started on a diet containing 60.9% fat (Purina TestDiets 58126) at 4 weeks of age. All animals achieved three consecutive weeks of diabetic fasting blood glucose values (>120 mg/dL) prior to their inclusion in the study. ipGTT: Thirty-five mice were fasted overnight (16 hr) and were randomized into 7 groups (n=5) based upon their fasting glucose concentrations. Ten minutes prior to the glucose tolerance test, mice were dosed i.v. with PBS or GLP1 MMB of SEQ ID NO 4 (0.003, 0.01, 0.03, 0.1, 0.3, and 1.0 mg/kg). Five minutes prior to the glucose tolerance test, a fasting glucose measurement was made from tail vein blood. At T=0 min, mice were dosed i.p. with D-glucose (1.0 mg/g). Blood glucose levels were measured at 15, 30, 60, 90, 120, 150 and 180 min using tail vein blood.

[2] = test system: INS-1E cells; assay: Insulin secretion assay in INS-1E cells; assay type: cell-based, rat; details: 25 nM, 6.5 mM glucose, two hours
Method: In vitro Activity of GLP-1 MMB as Measured by Insulin Secretion. A further insulin secretion assay was developed to measure functional in vitro activity of the GLP-1 MMB of SEQ ID NO 4.,
Cell culture: INS-1E cells were cultured in RPMI 1640/10% FBS/1% L-glutamine/1% Sodium Pyruvate/1% Non-essential Amino Acids/50 μM β-Mercaptoethanol and maintained at 37° C. in a humidified incubator with 5% CO2. Data was analyzed in GraphPad PRISM, version 4.03.
Insulin Secretion Assay: INS-1E cells were plated at 100,000 cells/well in 96-well plates (Costar 3610) and allowed to recover 4 days in normal growth media. The cells were washed twice and 0.1 ml of KRBH buffer/3 mM glucose was added. The cells were allowed to equilibrate in this buffer for 2 hours. The media was removed and 0.12 ml of GLP-1 MMB of SEQ ID NO 4 in KRBH with 6.5 mM glucose was added per well. Twenty microliters of supernatant was removed per well for the T=0 time point. The cells were incubated for two hours at 37° C. at 5% CO2 and twenty microliters of supernatant were removed per well. Supernatants were frozen at −20° C. until the insulin ELISA was performed. Insulin concentrations were determined using a the Ultra Sensitive Rat Insulin ELISA kit (Crystal Chem).

[3] = biological target: T1, GLP-1 receptor (Mus musculus, UniProt O35659); assay: Glucose tolerance test (ipGTT) in GLP-1R−/− and wild type mice; assay type: in vivo; details: wild type mice, single iv, GLP-1 MMB 1 mg/kg, exendin-4 0.07 mg/kg
T1 construct: Male GLP-1R−/− and age matched wild type mice; from tissue; host or cells: whole animal (wild type mice; GLP-1R-/- mice as receptor-free control)
T1 sequence (O35659 22-463): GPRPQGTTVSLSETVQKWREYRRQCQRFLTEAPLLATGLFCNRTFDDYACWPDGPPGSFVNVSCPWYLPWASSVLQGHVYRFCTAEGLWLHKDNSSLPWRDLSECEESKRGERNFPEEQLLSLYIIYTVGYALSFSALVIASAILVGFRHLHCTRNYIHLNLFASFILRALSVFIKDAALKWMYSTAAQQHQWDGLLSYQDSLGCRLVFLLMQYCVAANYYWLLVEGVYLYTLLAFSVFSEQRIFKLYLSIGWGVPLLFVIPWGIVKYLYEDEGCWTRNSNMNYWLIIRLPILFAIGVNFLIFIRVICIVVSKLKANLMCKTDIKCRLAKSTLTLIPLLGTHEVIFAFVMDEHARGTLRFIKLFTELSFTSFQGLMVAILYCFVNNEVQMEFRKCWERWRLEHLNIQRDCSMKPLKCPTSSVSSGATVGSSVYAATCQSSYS
Method: Materials/Methods: Animals: Male GLP-1R−/− and age matched wild type mice were randomized into three treatment groups (n=5) based on body weight and fasting blood glucose.
Glucose tolerance test (ipGTT): Mice were fasted overnight and dosed intravenously as discussed above. Fasting glucose was measured via tail snips using a hand-held glucometer (LifeScan). At t=0 min, mice were dosed i.p. with D-glucose (1.0 mg/g, Sigma) and blood glucose was measured after 15, 30, 60, 90 and 120 min using tail vein blood

[4] = test system: diet-induced obese (DIO) mice; assay: Correlation of ipGTT activity with plasma levels in DIO mice; assay type: in vivo; details: single 1 mg/kg iv, up to 6 days post injection
Method: Correlation of the Pharmacodynamic Activity of a GLP-1 MMB with its Pharmacokinetic Profile in DIO Mice. The purpose of this study was to correlate the effect of a GLP-1 MMB in regulating glucose tolerance with its pharmacokinetic profile in diet-induced obese (DIO) mice. Animals were dosed (iv) with a GLP-1 MMB of SEQ ID NO 4 (1 mg/kg) and glucose tolerance tests were performed at various time post dosing. Simultaneously, blood samples were collected to assess GLP-1 MMB of SEQ ID NO 4 levels.
Materials/Methods. Animals/Treatments: C57B1/6J mice were started at 4 weeks of age on a diet containing 60.9% fat (Purina TestDiets 58126). […]
Glucose tolerance test (ipGTT): Mice were fasted overnight (16 hr) before the test. In the morning a fasting glucose was measured via tail snips using a hand-held glucometer (LifeScan). […] Blood glucose was measured after 15, 30, 60, 90 and 120 min using tail vein blood.
GLP-1 MMB plasma levels: Blood samples were collected after the ipGTT via cardiac puncture. […] The concentration of intact GLP-1 MMB of SEQ ID NO 4 was measured using a mesoscale discovery (MSD) technology. […] A ruthenium labeled monoclonal antibody recognizing the linker region of the mimetibody (CNTO712) was added for detection, and the luminescence responses were determined using the MSD sector imager 6000 reader. […]

B1: GLP-1 MMB of SEQ ID NO 4: GLP-1 mimetibody having the sequence of SEQ ID NO 4 (protein)
chain: HSEGTFTSDVSSYLEGQAAKEFIEWLVKGRGGGSGGGSGTLVTNSS[human IgG4 Fc with S228P F234A L235A (EU numbers) omitted]
modifications: fusion protein of GLP-1 variant-linker 3-J region-Hinge H3-Fc
- area under the curve of ipGTT relative to the PBS-treated group ([1]; i.v. 0.01, 0.03, 0.1, 0.3, 1 mg/kg): significantly reduced
- ED50 (ipGTT AUC vs dose) ([1]; i.v., fit to a hyperbola): 0.014 mg/kg
- amount of insulin secreted into the supernatant [2]: significantly increased
- AUC of ipGTT [3]: improved glucose tolerance; also recorded: statistically significant reduction
- AUC of ipGTT relative to the negative control [4]: statistically significant reduction
